# Experimental data: PubChem BioAssay AID463173 (ICCB-Longwood Screening Facility, Harvard Medical School, 2010)
# In all, about 52,000 compounds went through this assay and about 4,300 (8.3%) were called active. Rule as the data show it: active = survival mostly below about 52% (no sharp cut-off); inactive = mostly above about 56%. Some of the results follow.
# System: DeltatarO mutant
# Experiment: S. aureus survival, RN4220 and DeltatarO strains – OD600, teichoic acid synthesis inhibitors, primary screen (AID 463173)
# Conditions: S. aureus RN4220 wild type/DeltatarO growth, OD600, 18 h, hits give low values, screened at 18.75 µg/mL (by protocol)
row,SMILES,survival
1,COc1ccc(-c2cc(C(F)(F)F)nc(SCC(=O)NCc3ccc(F)cc3)n2)cc1,inactive: 74%
2,CCCSc1nsc(NC(=O)CC)n1,inactive: 96%
3,CCCCc1ccc(NC(=O)Cn2cnc3c2c(=O)n(C)c(=O)n3C)cc1,inactive: 120%
4,Cc1cccc(NC(=O)Cn2c(=O)n(Cc3ccc4c(c3)OCO4)c(=O)c3ccccc32)c1,inactive: 66%
5,CCS(=O)(=O)c1c(Nc2ccc(F)c(Cl)c2)sc(C(=O)c2ccccc2)c1N,inactive: 60%
6,O=C(C1CCC1)N1CCN(c2ccccc2)CC1,inactive: 93%
7,CCOc1ccc(-c2ccc(NS(=O)(=O)c3cc(C)ccc3OC)cc2)nn1,inactive: 86%
8,Cc1ccc(-c2nnn(CC(=O)N(Cc3ccccc3)C(C(=O)NC3CCCC3)c3ccco3)n2)cc1 (stereo not given),inactive: 64%
9,Cc1c(CNCCCc2ccccc2)c(C(=O)O)c(C)n1Cc1ccc(Cl)cc1,inactive: 72%
10,Cc1cc(=O)[nH]c2nnc(SCc3cccc(F)c3)n12,inactive: 87%
11,Cc1ccc(Cn2cc(CCC(=O)NC3CCCCC3)c3ccccc32)cc1,inactive: 83%
12,COc1ccc(S(=O)(=O)NC2(C(F)(F)F)NC(=O)N(CCc3ccccc3)C2=O)cc1 (stereo not given),inactive: 99%
13,CCCCCSc1nnc2c(n1)OC(c1ccc(C)s1)N(C(C)=O)c1ccccc1-2 (stereo not given),active: 45%
14,Cc1cccc(N2CCN(C(=O)Nc3ccc(F)cc3)CC2C)c1 (stereo not given),inactive: 90%
15,Cc1c(Cl)cccc1N1CC(c2nc3ccccc3n2Cc2ccccc2F)CC1=O (stereo not given),inactive: 41%
16,Oc1ccccc1-c1nc(/C=C/c2ccc(F)cc2)no1,inactive: 79%
17,COC(=O)c1ccc(CSc2nc3ccccc3o2)cc1,inactive: 97%
18,COc1ccccc1NC(=O)CN1C(=O)C(c2ccc(F)cc2)=NC1(C)C,inactive: 93%
19,O=C(N1CCC(O)(c2cccnc2)CC1)C12CC3CC(CC(C3)C1)C2,inactive: 99%
20,Cc1ccccc1Cn1c(CCCNC(=O)C2CCCCC2)nc2ccccc21,inactive: 90%
21,Cc1cccc(OCc2nnc(SCC(=O)Nc3ccc(C)cc3C)o2)c1,inactive: 139%
22,Cc1ccccc1Cn1c(SCc2ccc(C(=O)NCc3cccs3)cc2)nc2ccncc21,inactive: 106%
23,COc1ccc(S(=O)(=O)N(Cc2nc(-c3cccc(C)c3)no2)C2CCCCC2)cc1,inactive: 57%

row,SMILES,survival
1,Cc1ccc2[nH]cc(NC(=O)N3CCCCC3)c(=O)c2c1,inactive: 96%
2,CCCSCCCNC(=O)C1CCN(C(=O)c2cc3sccc3n2C)CC1,inactive: 109%
3,COc1ccccc1N1CCN(S(=O)(=O)c2ccc3c(c2)oc(=O)n3C)CC1,inactive: 89%
4,Cc1nnc(N2CCC(C(=O)NC(C)C)CC2)c2nn(-c3ccc(Cl)cc3)c(C)c12,inactive: 74%
5,CCCC(=O)Nc1cccc(-c2nc3ccccc3c(=O)o2)c1,inactive: 98%
6,CCSc1ncnc2c(-c3ccc(OC)cc3)nsc12,inactive: 97%
7,Cc1cccc(NC(=O)Cn2c(=O)n(Cc3ccc(C(=O)NCc4ccc5c(c4)OCO5)cc3)c(=O)c3ccccc32)c1,inactive: 95%
8,O=C(CCn1c(=O)c2cccn2c2ccc(F)cc21)NCc1ccccc1F,active: 45%
9,Cc1ccc(NC(=O)CSc2nc(-c3ccc(F)cc3)cc(C(F)(F)F)c2C#N)cc1,inactive: 63%
10,CCOc1ccc(C(=O)c2cn(CC(=O)Nc3cc(OC)cc(OC)c3)c3ccc(F)cc3c2=O)cc1,inactive: 66%
11,COc1ccc(C(=O)SC2=NCCS2)cc1,inactive: 103%
12,COc1ccc(-c2c(C#N)c(SCC(=O)Nc3ccccc3C)nc(C)c2C(=O)Nc2ccccc2)cc1OC,inactive: 95%
13,CC(=O)Nc1cccc(NC(=O)Cn2c(-c3cccnc3)ccc(C#N)c2=O)c1,inactive: 77%
14,COCCCNC(=O)CSc1nc(-c2cccc(F)c2)[nH]c1-c1ccccc1,inactive: 86%
15,O=C(CN1CCN(Cc2ccccc2Cl)C1=O)NCc1ccccc1Cl,inactive: 67%
16,COc1ccc(CCN2C(=O)N(c3ccc(F)cc3)C(=O)C2CC(=O)Nc2ccccc2)cc1 (stereo not given),inactive: 66%
17,N#C/C(=C\c1ccc(Cl)cc1)C(=O)NCC1CCCO1 (stereo not given),active: 44%
18,CCN(CCCNC(=O)c1cc2c(=O)[nH]c3ccccc3c2s1)c1ccccc1,inactive: 72%
19,CCC1CCCCN1S(=O)(=O)c1ccc(NC(=O)c2cc(=O)c3ccccc3o2)cc1 (stereo not given),inactive: 79%
20,CCCCOc1ccc(C2c3c(-c4ccccc4O)n[nH]c3C(=O)N2Cc2ccncc2)cc1OC (stereo not given),inactive: 61%
21,O=S(=O)(c1ccc(-n2cnnn2)cc1)N1CCN(c2ccccc2F)CC1,inactive: 77%
22,CCCCn1nnnc1SCC(=O)c1cc(OC)ccc1OC,inactive: 92%
23,Cc1c2cnn(CC(=O)NCc3ccccc3)c(=O)c2c(C)n1Cc1cccc(Cl)c1,inactive: 60%

row,SMILES,survival
1,Cc1ccc(C=N/C(=N\NC(=O)c2ccccc2)c2ccccc2)o1,inactive: 94%
2,CC(=O)c1cccc(NC(=O)Cn2c(SCC(=O)Nc3ccc(F)cc3)nc3ccccc32)c1,active: 20%
3,N#Cc1ccc2ccn(CC(N)=O)c2c1,inactive: 83%
4,CCOc1ccc(-n2c(C)nc3c(cnn3-c3ccc(C)cc3)c2=O)cc1,inactive: 76%
5,COc1ccc(C2c3cccn3CCN2S(=O)(=O)c2ccccc2[N+](=O)[O-])cc1OC (stereo not given),inactive: 124%
6,COC(=O)[n+]1ccc(N2CCOCC2)cc1,inactive: 94%
7,O=C(NCc1ccccc1)c1nnc(Cc2cccc(F)c2)o1,inactive: 85%
8,CCc1ccc(CNC(=O)CCc2c(C)nn(-c3ccc(N4CCCCC4)nn3)c2C)cc1,inactive: 77%
9,O=C(NCC(c1ccc2c(c1)OCO2)N1CCOCC1)c1ccccc1F (stereo not given),inactive: 92%
10,CC(CNC(=O)Cn1ccc2cc(S(=O)(=O)N3CCCCC3)ccc21)c1ccccc1 (stereo not given),inactive: 87%
11,CCc1cnc2c(c1SCC(=O)Nc1ccc(Cl)cc1)c(=O)n(C)c(=O)n2C,inactive: 117%
12,COc1ccc(-c2cc(C(F)F)n3ncc(C(=O)Nc4cc(OC)ccc4OC)c3n2)cc1,active: 51%
13,COc1ccccc1CNC(=O)Cn1c(=O)oc2cc(S(=O)(=O)N3CCC(C)CC3)ccc21,inactive: 143%
14,COc1cccc(CNCCSc2nnnn2C)c1OCc1ccc(Cl)cc1Cl,inactive: 69%
15,COc1ccccc1NC(=O)CSc1ccc(-c2sc(C)nc2C)nn1,inactive: 92%
16,CNc1nc(-c2ccc3c(c2)CCN3S(=O)(=O)c2ccccc2)cs1,inactive: 86%
17,CCC(Nc1ccc(-c2nc(-c3ccco3)no2)cc1[N+](=O)[O-])c1ccccc1 (stereo not given),inactive: 53%
18,CCn1c(CNC(=O)c2ccc(OC)cc2)nnc1SCC(=O)Nc1cccc(C)c1C,inactive: 132%
19,COc1cccc(Cn2c(=O)n(-c3cccc(Cl)c3C)c(=O)c3c4c(sc32)CN(C(C)=O)CC4)c1,inactive: 101%
20,Cc1ccc(NC(=O)CSc2nc3ccc(NC(=O)c4cccs4)cc3s2)c(C)c1,inactive: 74%
21,CCOC(=O)c1c(C)oc2nc(C)nc(NCC3CCN(Cc4cccc(C)c4)CC3)c12,inactive: 84%
22,CCOc1ccc(CCNC(=O)C2CCN(C(=O)N3CC(CC)Oc4ccc(C)cc43)CC2)cc1 (stereo not given),inactive: 63%
23,C1CCC(CNCC2CCCO2)CC1 (stereo not given),inactive: 77%

row,SMILES,survival
1,COc1ccc(C(=O)COC(=O)c2cc(-c3ccccc3)nc3c(C)cccc23)cc1,inactive: 64%
2,Cc1ccc(Cc2nc3ccccc3nc2SCC(=O)N2CCN(c3ccccc3F)CC2)cc1,inactive: 49%
3,O=C1CCc2cc(S(=O)(=O)NCc3ccc(F)cc3)cc3c2N1CC3,inactive: 81%
4,CC(=O)N1CCCc2ccc(NS(=O)(=O)c3ccc(C)c(C)c3)cc21,inactive: 77%
5,CN(C(=O)CCc1ccccc1)c1nnc(-c2ccncc2)s1,inactive: 99%
6,CCC(=O)N1CCc2cc(Br)cc(S(=O)(=O)N3CCCC(C(=O)NCc4cccc(OC)c4)C3)c21 (stereo not given),inactive: 122%
7,Cc1nc2c(-c3ccccc3)c(C)nn2c(C)c1CCC(=O)N1CCN(c2ccccc2)CC1,inactive: 88%
8,Cn1nc(C(=O)N2CCN(c3cccc(Cl)c3)CC2)c2c1-c1ccccc1S(=O)(=O)C2,active: 37%
9,CCCCCn1c(NCc2ccccc2OC)nc2ccccc21,active: -1%
10,CCCS(=O)(=O)c1ncc(Cl)c(C(=O)Nc2c(C(=O)c3ccccc3)oc3ccccc23)n1,inactive: 102%
11,CCc1cc2c(cc3c(=O)n(CC(=O)N4CCC(C)CC4)nc(CC)n32)s1,active: 41%
12,CCN(CC)S(=O)(=O)c1ccc2c(c1)c(=O)c(C(=O)NCc1ccc(Cl)cc1)cn2C,inactive: 63%
13,COc1ccc(CC(=O)NCc2ccc3c(c2)CCN3C(C)=O)cc1OC,inactive: 99%
14,COc1cccc(CNC(=O)C2Cc3cc(S(=O)(=O)N4CCCCCC4)ccc3N2C(C)=O)c1 (stereo not given),inactive: 97%
15,CCSc1nnc(C2CCCN(C(=O)C3CCC(OC)CC3)C2)n1C (stereo not given),inactive: 83%
16,CCOC(=O)C1CCN(C(=O)c2ccc3c(c2)sc2nc(-c4ccccc4)cn23)CC1,active: 54%
17,COc1cccc(CN(Cc2ccc3c(c2)OCO3)S(=O)(=O)c2ccc(-n3cnnn3)cc2)c1,inactive: 86%
18,Cc1c(C(=O)N(C)C)sc2c1c(=O)n(-c1ccc(F)cc1)c(=O)n2Cc1cc(=O)n2ccccc2n1,inactive: 94%
19,Nc1c(C(=O)Nc2ccc(Cl)c(C(F)(F)F)c2)sc2nc(-c3ccncc3)ccc12,inactive: 81%
20,CCOC(=O)C1CCN(c2nc(-c3ccc(Br)cc3)nc3ccccc23)CC1,inactive: 83%
21,Cc1ccc2c(c1)C(c1ccccc1)N(C(=O)c1ccc(OC(C)C)cc1)CC(=O)N2 (stereo not given),inactive: 59%
